Measured values as given in article PMC9911399, “Two distinct binding modes provide the RNA-binding protein RbFox with extraordinary sequence specificity”.
Changes are numbered by the printed parent chain; changes in the protein carry UniProt numbers. The list shows a part of the results.

T1: RBFOX1 RRM (Homo sapiens, UniProt Q9NWB1 109-208)
T1 sequence: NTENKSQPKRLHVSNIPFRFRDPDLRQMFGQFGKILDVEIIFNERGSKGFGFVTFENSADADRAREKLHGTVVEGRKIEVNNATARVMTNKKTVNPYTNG

B1: GUAGAAA (DNA:RNA)
RNA: GGGAGACCGGAAUUCAGAUUGUCCGUAGAAAUUAAAUCCCGUCGUAGCCACCA
DNA 1: CAATCTGAATTCCGGTCTCCC
DNA 2: TGGTGGCTACGACGGGATT
B2: UGCAUCU (DNA:RNA)
RNA: GGGAGACCGGAAUUCAGAUUGUCCUGCAUCUUUAAAUCCCGUCGUAGCCACCA
DNA 1: CAATCTGAATTCCGGTCTCCC
DNA 2: TGGTGGCTACGACGGGATT
B3: GGGGCAC (DNA:RNA)
RNA: B1 RNA with U26G, A27G, A29C, A31C
DNA 1: CAATCTGAATTCCGGTCTCCC
DNA 2: TGGTGGCTACGACGGGATT
B4: CGGCACG (DNA:RNA)
RNA: B2 RNA with U25C, C27G, A28C, U29A, U31G
DNA 1: CAATCTGAATTCCGGTCTCCC
DNA 2: TGGTGGCTACGACGGGATT
B5: AUCGGAC (DNA:RNA)
RNA: B1 RNA with G25A, A27C, A29G, A31C
DNA 1: CAATCTGAATTCCGGTCTCCC
DNA 2: TGGTGGCTACGACGGGATT
B6: GACUUAU (DNA:RNA)
RNA: B2 RNA with U25G, G26A, A28U, C30A
DNA 1: CAATCTGAATTCCGGTCTCCC
DNA 2: TGGTGGCTACGACGGGATT
B7: CGCUAAA (DNA:RNA)
RNA: B1 RNA with G25C, U26G, A27C, G28U
DNA 1: CAATCTGAATTCCGGTCTCCC
DNA 2: TGGTGGCTACGACGGGATT
B8: GUGGAAA (DNA:RNA)
RNA: B1 RNA with A27G
DNA 1: CAATCTGAATTCCGGTCTCCC
DNA 2: TGGTGGCTACGACGGGATT
B9: CCGUUUA (DNA:RNA)
RNA: B1 RNA with G25C, U26C, A27G, G28U, A29U, A30U
DNA 1: CAATCTGAATTCCGGTCTCCC
DNA 2: TGGTGGCTACGACGGGATT
B10: CCAGGCU (DNA:RNA)
RNA: B1 RNA with G25C, U26C, A29G, A30C, A31U
DNA 1: CAATCTGAATTCCGGTCTCCC
DNA 2: TGGTGGCTACGACGGGATT
B11: GGUCGCG (DNA:RNA)
RNA: B2 RNA with U25G, C27U, A28C, U29G, U31G
DNA 1: CAATCTGAATTCCGGTCTCCC
DNA 2: TGGTGGCTACGACGGGATT
B12: CCUACGA (DNA:RNA)
RNA: B1 RNA with G25C, U26C, A27U, G28A, A29C, A30G
DNA 1: CAATCTGAATTCCGGTCTCCC
DNA 2: TGGTGGCTACGACGGGATT
B13: GUUGACC (DNA:RNA)
RNA: B1 RNA with A27U, A30C, A31C
DNA 1: CAATCTGAATTCCGGTCTCCC
DNA 2: TGGTGGCTACGACGGGATT
B14: CUUGUAG (DNA:RNA)
RNA: B1 RNA with G25C, A27U, A29U, A31G
DNA 1: CAATCTGAATTCCGGTCTCCC
DNA 2: TGGTGGCTACGACGGGATT
B15: CAACAUG (DNA:RNA)
RNA: B1 RNA with G25C, U26A, G28C, A30U, A31G
DNA 1: CAATCTGAATTCCGGTCTCCC
DNA 2: TGGTGGCTACGACGGGATT
B16: GUCUGCA (DNA:RNA)
RNA: B1 RNA with A27C, G28U, A29G, A30C
DNA 1: CAATCTGAATTCCGGTCTCCC
DNA 2: TGGTGGCTACGACGGGATT
B17: CGGCCAC (DNA:RNA)
RNA: B1 RNA with G25C, U26G, A27G, G28C, A29C, A31C
DNA 1: CAATCTGAATTCCGGTCTCCC
DNA 2: TGGTGGCTACGACGGGATT
B18: AACAUGG (DNA:RNA)
RNA: B2 RNA with U25A, G26A, C30G, U31G
DNA 1: CAATCTGAATTCCGGTCTCCC
DNA 2: TGGTGGCTACGACGGGATT
B19: AUCAUCU (DNA:RNA)
RNA: B2 RNA with U25A, G26U
DNA 1: CAATCTGAATTCCGGTCTCCC
DNA 2: TGGTGGCTACGACGGGATT
B20: UAUUACA (DNA:RNA)
RNA: B1 RNA with G25U, U26A, A27U, G28U, A30C
DNA 1: CAATCTGAATTCCGGTCTCCC
DNA 2: TGGTGGCTACGACGGGATT
B21: CGCUUAC (DNA:RNA)
RNA: B2 RNA with U25C, A28U, C30A, U31C
DNA 1: CAATCTGAATTCCGGTCTCCC
DNA 2: TGGTGGCTACGACGGGATT
B22: GAGCGGC (DNA:RNA)
RNA: B1 RNA with U26A, A27G, G28C, A29G, A30G, A31C
DNA 1: CAATCTGAATTCCGGTCTCCC
DNA 2: TGGTGGCTACGACGGGATT
B23: CCGCCGU (DNA:RNA)
RNA: B2 RNA with U25C, G26C, C27G, A28C, U29C, C30G
DNA 1: CAATCTGAATTCCGGTCTCCC
DNA 2: TGGTGGCTACGACGGGATT
B24: ACUAGUU (DNA:RNA)
RNA: B2 RNA with U25A, G26C, C27U, U29G, C30U
DNA 1: CAATCTGAATTCCGGTCTCCC
DNA 2: TGGTGGCTACGACGGGATT
B25: CUGCGGC (DNA:RNA)
RNA: B1 RNA with G25C, A27G, G28C, A29G, A30G, A31C
DNA 1: CAATCTGAATTCCGGTCTCCC
DNA 2: TGGTGGCTACGACGGGATT
B26: GAAAGUC (DNA:RNA)
RNA: B1 RNA with U26A, G28A, A29G, A30U, A31C
DNA 1: CAATCTGAATTCCGGTCTCCC
DNA 2: TGGTGGCTACGACGGGATT
B27: CUAGUUG (DNA:RNA)
RNA: B1 RNA with G25C, A29U, A30U, A31G
DNA 1: CAATCTGAATTCCGGTCTCCC
DNA 2: TGGTGGCTACGACGGGATT
B28: GUUCAGC (DNA:RNA)
RNA: B1 RNA with A27U, G28C, A30G, A31C
DNA 1: CAATCTGAATTCCGGTCTCCC
DNA 2: TGGTGGCTACGACGGGATT
B29: UCGUAUG (DNA:RNA)
RNA: B1 RNA with G25U, U26C, A27G, G28U, A30U, A31G
DNA 1: CAATCTGAATTCCGGTCTCCC
DNA 2: TGGTGGCTACGACGGGATT
B30: GCUGGUU (DNA:RNA)
RNA: B1 RNA with U26C, A27U, A29G, A30U, A31U
DNA 1: CAATCTGAATTCCGGTCTCCC
DNA 2: TGGTGGCTACGACGGGATT
B31: AGCGCAG (DNA:RNA)
RNA: B1 RNA with G25A, U26G, A27C, A29C, A31G
DNA 1: CAATCTGAATTCCGGTCTCCC
DNA 2: TGGTGGCTACGACGGGATT

target: T1, RBFOX1 RRM; assay: EMSA; HiTS-Eq, 1 nM pool, 10 min; buffer printed only for the single-RNA assays: 10 mM Tris pH 7.5, 150 mM NaCl, 3.4 mM EDTA, 0.001% NP-40, 30 C; conditions: tags: His6 N-terminal (pET28a); label: 5' 32P
Outline: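 Purified RbFox RRM, wild type or mutant, was incubated for 10 min in 50 µL with 1 nM of a 5′-radiolabelled RNA pool carrying 7 randomized nucleotides, whose flanks were annealed to DNA oligonucleotides, over a series of increasing protein concentrations. Unbound RNA was resolved on 8% native PAGE, cut out, reverse-transcribed, barcoded by PCR and sequenced on an Illumina HiSeq 2500. Relative association constants were derived from changes in read counts for each RNA species versus the control reaction and normalised to the cognate motif.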

Question: For B1, which binding signal is on record?
Answer: 0.00469 KA relative to UGCAUGU

Question: Which binding signal does the source give for B2 here?
Answer: 0.0208 KA relative to UGCAUGU

Question: For B3, which binding signal is on record?
Answer: 0.0252 KA relative to UGCAUGU

Question: B4 was tested. Which binding signal did it give?
Answer: 0.0377 KA relative to UGCAUGU

Question: For B5, which binding signal is on record?
Answer: 0.00433 KA relative to UGCAUGU

Question: B6 was tested. Which binding signal did it give?
Answer: 0.00918 KA relative to UGCAUGU

Question: B7 was tested. Which binding signal did it give?
Answer: 0.00338 KA relative to UGCAUGU

Question: B8 was tested. Which binding signal did it give?
Answer: 0.0139 KA relative to UGCAUGU

Question: Which binding signal does the source give for B9 here?
Answer: 0.00336 KA relative to UGCAUGU

Question: How did the binding signal turn out when B10 was run?
Answer: 0.00926 KA relative to UGCAUGU

Question: Which binding signal does the source give for B11 here?
Answer: 0.0106 KA relative to UGCAUGU

Question: With B12 as the binder, how does the binding signal read?
Answer: 0.00267 KA relative to UGCAUGU

Question: Which binding signal does the source give for B13 here?
Answer: 0.0139 KA relative to UGCAUGU

Question: With B14 as the binder, how does the binding signal read?
Answer: 0.0111 KA relative to UGCAUGU

Question: How did the binding signal turn out when B15 was run?
Answer: 0.00479 KA relative to UGCAUGU

Question: Which binding signal does the source give for B16 here?
Answer: 0.0255 KA relative to UGCAUGU

Question: How did the binding signal turn out when B17 was run?
Answer: 0.00887 KA relative to UGCAUGU

Question: Which binding signal does the source give for B18 here?
Answer: 0.00507 KA relative to UGCAUGU

Question: For B19, which binding signal is on record?
Answer: 0.00124 KA relative to UGCAUGU

Question: Which binding signal does the source give for B20 here?
Answer: 0.0071 KA relative to UGCAUGU

Question: For B21, which binding signal is on record?
Answer: 0.00631 KA relative to UGCAUGU

Question: With B22 as the binder, how does the binding signal read?
Answer: 0.0148 KA relative to UGCAUGU

Question: B23 was tested. Which binding signal did it give?
Answer: 0.00901 KA relative to UGCAUGU

Question: With B24 as the binder, how does the binding signal read?
Answer: 0.00854 KA relative to UGCAUGU

Question: How did the binding signal turn out when B25 was run?
Answer: 0.0171 KA relative to UGCAUGU

Question: B26 was tested. Which binding signal did it give?
Answer: 0.00919 KA relative to UGCAUGU

Question: For B27, which binding signal is on record?
Answer: 0.0137 KA relative to UGCAUGU

Question: With B28 as the binder, how does the binding signal read?
Answer: 0.0147 KA relative to UGCAUGU

Question: Which binding signal does the source give for B29 here?
Answer: 0.0193 KA relative to UGCAUGU

Question: How did the binding signal turn out when B30 was run?
Answer: 0.0289 KA relative to UGCAUGU

Question: Which binding signal does the source give for B31 here?
Answer: 0.0119 KA relative to UGCAUGU
